The source of these data is PMC10190621.

The chains behind the UniProt entries cited, without tags or fusion partners. Where a name states a change or a piece, a line headed by the entry shows the natural chain unless it says otherwise.
UniProt Q14145: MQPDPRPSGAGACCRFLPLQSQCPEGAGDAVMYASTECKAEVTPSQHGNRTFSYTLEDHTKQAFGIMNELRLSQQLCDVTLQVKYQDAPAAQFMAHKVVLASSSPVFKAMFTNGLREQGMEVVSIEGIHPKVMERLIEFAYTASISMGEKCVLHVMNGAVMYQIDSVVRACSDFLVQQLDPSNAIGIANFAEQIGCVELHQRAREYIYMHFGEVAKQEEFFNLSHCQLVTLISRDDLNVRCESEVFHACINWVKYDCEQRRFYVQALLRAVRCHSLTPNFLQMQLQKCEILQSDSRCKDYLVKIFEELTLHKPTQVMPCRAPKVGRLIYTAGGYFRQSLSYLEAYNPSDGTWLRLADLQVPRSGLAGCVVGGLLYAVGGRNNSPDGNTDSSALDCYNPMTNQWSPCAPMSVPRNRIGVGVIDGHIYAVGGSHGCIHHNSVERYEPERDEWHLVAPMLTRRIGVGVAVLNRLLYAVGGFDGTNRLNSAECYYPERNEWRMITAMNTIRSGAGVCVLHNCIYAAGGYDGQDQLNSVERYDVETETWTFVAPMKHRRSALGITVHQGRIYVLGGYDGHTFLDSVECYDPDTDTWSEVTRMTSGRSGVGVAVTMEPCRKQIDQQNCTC
UniProt P61960: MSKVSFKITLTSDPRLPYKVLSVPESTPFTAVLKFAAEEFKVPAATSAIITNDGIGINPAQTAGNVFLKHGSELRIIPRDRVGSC

Results are given in words; binding and its absence hold for the method and conditions named. For some of these results: In cells and extracts the contact can be indirect. Some entries that bind do so weakly or less than the wild type. Tags and fused reporters may be left off the sequences shown.

The target of experiment [1] is T1, Myc-tagged DDRGK1 (human) (UniProt Q96HY6).
T1 sequence: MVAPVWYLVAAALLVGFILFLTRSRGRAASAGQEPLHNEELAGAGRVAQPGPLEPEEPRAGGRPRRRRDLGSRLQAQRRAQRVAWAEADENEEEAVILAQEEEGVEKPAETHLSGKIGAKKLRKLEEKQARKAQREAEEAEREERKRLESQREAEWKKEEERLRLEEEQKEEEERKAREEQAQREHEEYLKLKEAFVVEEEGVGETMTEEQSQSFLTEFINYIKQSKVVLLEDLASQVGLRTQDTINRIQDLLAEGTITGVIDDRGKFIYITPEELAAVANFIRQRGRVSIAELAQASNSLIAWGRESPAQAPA
Nature of the experiment: co-IP; two tagged proteins co-transfected into HEK293T cells; cell lysis buffer with protease inhibitor; anti-Myc, anti-Flag or anti-HA immunomagnetic beads, 4 °C overnight, washed three times; western blot. In general terms: In western blotting, separated proteins are transferred to a membrane and probed.

The target of experiment [2] is T2, DDRGK1-Flag truncation, amino acids 1-210 (human) (UniProt Q96HY6).
T2 sequence: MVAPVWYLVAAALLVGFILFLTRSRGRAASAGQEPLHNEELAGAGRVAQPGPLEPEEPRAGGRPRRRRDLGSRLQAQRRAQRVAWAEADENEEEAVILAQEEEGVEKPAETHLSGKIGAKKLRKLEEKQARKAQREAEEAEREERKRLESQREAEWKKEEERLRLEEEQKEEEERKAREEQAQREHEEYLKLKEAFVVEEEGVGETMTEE
Description: co-IP; one tagged protein transfected into HEK293T cells as bait, endogenous proteins as prey; anti-Myc, anti-HA or anti-Flag immunomagnetic beads, 4 °C overnight; western blot with antibodies to the endogenous proteins.

For experiment [3], the target named is T1, Myc-tagged DDRGK1 (human). The description is as above.
Experiment [4] addresses T3, FLAG-tagged DDRGK1 (human) (UniProt Q96HY6).
T3 sequence: T1 sequence
Nature of the experiment: co-IP; two tagged proteins co-transfected into HEK293T cells; cell lysis buffer with protease inhibitor; anti-Myc, anti-Flag or anti-HA immunomagnetic beads, 4 °C overnight, washed three times; western blot.

Experiment [5] concerns the target T4, Fc-tagged DDRGK1 (full length) (human) (UniProt Q96HY6).
T4 sequence: T1 sequence
Description: pull-down; Fc pulldown: 10 µg purified Fc or Fc-DDRGK1 on Protein A/G immunomagnetic beads (room temperature 0.5 h), mixed with recombinant NRF2 and KEAP1 proteins at 4 °C overnight, washed three times, immunoblot; both purified.

Experiment [6] deals with T5, HA-tagged NRF2 (UniProt Q16236).
T5 sequence: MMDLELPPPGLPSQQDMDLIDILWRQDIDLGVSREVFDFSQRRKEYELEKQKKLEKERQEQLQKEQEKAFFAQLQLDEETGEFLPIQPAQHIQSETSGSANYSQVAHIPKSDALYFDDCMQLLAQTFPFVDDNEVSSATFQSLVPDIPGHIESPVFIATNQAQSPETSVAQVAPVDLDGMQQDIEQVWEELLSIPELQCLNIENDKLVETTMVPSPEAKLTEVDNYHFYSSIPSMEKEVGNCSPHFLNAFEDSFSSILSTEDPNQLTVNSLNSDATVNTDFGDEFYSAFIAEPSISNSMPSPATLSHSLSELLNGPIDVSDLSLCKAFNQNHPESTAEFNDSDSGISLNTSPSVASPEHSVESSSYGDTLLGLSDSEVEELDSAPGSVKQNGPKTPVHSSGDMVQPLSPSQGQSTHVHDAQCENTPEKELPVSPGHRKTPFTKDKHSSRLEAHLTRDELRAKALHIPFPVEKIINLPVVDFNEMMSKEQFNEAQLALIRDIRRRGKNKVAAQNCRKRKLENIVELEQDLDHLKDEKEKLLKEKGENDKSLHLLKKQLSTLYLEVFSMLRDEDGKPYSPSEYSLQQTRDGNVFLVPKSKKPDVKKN
Description: co-IP; two tagged proteins co-transfected into HEK293T cells; cell lysis buffer with protease inhibitor; anti-Myc, anti-Flag or anti-HA immunomagnetic beads, 4 °C overnight, washed three times; western blot.

Regarding “HA-tagged KEAP1 (from UniProt Q14145 1-624)”, in experiment [1], the binding result is given as “binds”.
Consider “endogenous KEAP1 (from UniProt Q14145 1-624)”, for which the binding entry in experiment [2] and in experiment [3] was “binds” in each case.
On to “endogenous NRF2 (from UniProt Q16236 1-605)”, for which, in experiment [3], the binding entry was “no binding”.
“HA-tagged NRF2 (from UniProt Q16236 1-605)”: the binding entry in experiment [4] is “no binding”.
For “His-tagged KEAP1 (C-terminal amino acids 312-624, containing the Kelch domain) (from UniProt Q14145 312-624) (domain or fragment)”, the binding result in experiment [5] is “binds”.
Consider ufm1-HA (from UniProt P61960 1-85), for which, in experiment [6], the binding entry is “no binding”.
